# Measurements reported in PubChem BioAssay AID662 (National Center for Advancing Translational Sciences (NCATS), 2007).
# Screen size: about 71,000 compounds; about 1,800 (2.5%) were called active. This list was built around the results that the source calls inconclusive (neither active nor inactive); the mix of calls is not that of the screen. Calls follow the shape of the dose curve; as a rule, active = well fitted activation curve with a large enough effect in the signal ratio, with a control signal flat (not every such curve was filed as active); inconclusive = small, poorly fitted or top-dose-only effect, or effect the other way, or a change in a side signal; inactive = flat fitted curve, though single readings scatter; the % refers to the signal ratio. Where the call is inconclusive, the potency comes from a doubtful curve fit.
# Test: Cell signaling CRE-BLA (Fsk stim); as to activity change, negative = inhibition: % of control where 0% means no effect
# Settings: CHO CRE-bla reporter (cAMP response element driving beta-lactamase), forskolin EC10, beta-lactamase ratio; activity change, negative = inhibition: at 38.2 µM (top of the series) unless noted
# How it was run: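 Using CellSensor CRE-bla CHO cells in Opti-MEM with 0.5% dialyzed FBS, compounds were titrated with EC10 NKH 477 for 3 h at 37 °C. CCF4 ratio (460/530 nm) gave %Activity; AC50 derived.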
# Potency is read from the fitted curve at half-maximal effect; tags tell the direction and shape of the fitted curve.
Compound,"activity change, negative = inhibition",Potency
CN(C)Cc1ccccc1-c1cc(NCc2ccccc2)ncn1,inactive,
CN(C)Cc1ccccc1-c1cc(-n2ccnc2)ncn1,inconclusive: 10.2%,
COc1ccc(C2C3=C(Nc4ncnn42)c2ccccc2CC3)cc1OC (centres undefined),inactive,
CCOC(=O)c1ccc(CNC(=O)c2cc3cccc(OC)c3oc2=O)o1,inconclusive: 3.98%,
CNc1ncnc2c1ncn2[C@@H]1O[C@@H](CO)[C@H](O)[C@@H]1O,inactive,
Cn1c(=O)n(C)c2cc(NC(=O)c3cc4ccccc4o3)ccc21,,active: 10 µM
COC(=O)c1cc(COC(=O)c2cccnc2SC)oc1C,,"inconclusive: 15.8 µM [rising, single point]"
C[C@H]1CCCC2(CC[N+](C)(CCC[N+](C)(C)C)CC2)C1 (some centres undefined),inactive: -1.66% [at 7.6 µM],
CC1(CC(=O)O)C(=O)N=C2C=CC=CN21 (centres undefined),inactive,
Cc1cccc(NC(=O)CN(C)S(=O)(=O)c2ccc(Cl)cc2)n1,inconclusive: 18.4%,
Cc1cccc(-c2nsc(SCC(=O)NCc3ccco3)n2)c1,inconclusive: -7.52%,
Nn1c(SCC(=O)Nc2ccc3c(c2)OCCO3)nnc1-c1ccccn1,inactive,
CC(O)c1cccc(NC2=CC(=O)CC(C)(C)C2)c1 (centres undefined),inactive,
CCOCCCn1c(=NC(=O)c2cccnc2)c(C(=O)OCC)cc2c(=O)n3ccccc3nc21,,"inconclusive: 10 µM [rising, partial curve]"
Cc1ccc(-c2csc(NC(=O)CSc3ncn(-c4ccccc4)n3)n2)cc1,inactive,
O=C(C1CCN(S(=O)(=O)c2cccc3nsnc23)CC1)N1CCN(c2ccccc2F)CC1,inconclusive: -18.5%,
Cc1cccc(CNc2ccnc(-c3cccc(NS(C)(=O)=O)c3)n2)c1,inconclusive: -4.32%,
N#Cc1sc2nc3c(c(-c4cccnc4)c2c1N)CCC3,,"inconclusive: 25.1 µM [rising, single point]"
CCOC(=O)c1sc(NC(=O)CSc2nncs2)c(C(=O)OCC)c1C,,active: 3.16 µM
O=C1c2cccnc2C(Nc2ccc(S(=O)(=O)N3CCCCCC3)cc2)N1Cc1ccccc1 (centres undefined),,"inconclusive: 25.1 µM [falling, single point]"
CCOCCOC(=O)c1cccc(NC(=O)OCC)c1,inactive,
COc1cc2[nH]c3c(N4CCC(C(N)=O)CC4)ncnc3c2cc1OC,inconclusive: 22.8%,
COc1ccccc1C1C(C(=O)c2cc3ccccc3o2)=C(O)C(=O)N1CCN1CCOCC1 (centres undefined),inconclusive: 24.5%,
CCn1c2ccccc2c2nnc(SCC(=O)OCN3C(=O)c4ccccc4C3=O)nc21,,"inconclusive: 0.0501 µM [rising, partial curve, poor fit]"
